# Test results published in the antibiotic and cytotoxicity screens of Wong et al. (2023).
# The list shows a part of the results.
# Test system: HSkMC (human skeletal muscle cells)
# Assay: cytotoxicity call (relative viability < 0.9)
# Conditions: 10 µM
row,Structure (SMILES),cytotoxicity call
1,C1CCC(NC2CCCCC2)CC1,inactive
2,O=C1NC(=O)C(=C[C@@H]2CC=CCC2)C(=O)N1,inactive
3,C[C@@H]1CN([C@@H](C)CO)C(=O)CCCn2cc(nn2)CO[C@H]1CN(C)C(=O)Oc1ccc2ccccc2c1,inactive
4,N[C@@H](CO)Cc1ccccc1,inactive
5,C[C@H]1O[C@H](n2cnc3c(N)ncnc32)C[C@H]1O,inactive
6,C[C@@H](CN)CC(=O)O,inactive
7,O=C(O)/C=C/CO,inactive
8,Nc1ccc(Cl)cc1Cl,inactive
9,C=C[C@H]1[C@H](O[C@@H]2O[C@H](CO)[C@@H](O)[C@H](O)[C@H]2O)OC=C2C(=O)OCC[C@H]21,inactive
10,Cn1ccnc1N1CCNCC1,inactive
11,CCN(CC)C(=O)C1=NO[C@]2(CCNC2)C1,inactive
12,CC[C@@H]1/C=C/C=C/C[C@H](C)[C@@H](O)[C@](C)(O)C(=O)[C@H](C)[C@@H](O)[C@H](C)C(=O)[C@H](C)[C@@H](O)[C@H](C)/C=C/C(=O)O[C@H]2[C@@H](C)[C@@H](CC1)O[C@@]1(CC[C@@H](C)[C@@H](C[C@H](C)O)O1)[C@@H]2C,inactive
13,O=C(O)[C@H]1[C@H](C(=O)O)[C@H]2CC[C@@H]1O2,inactive
14,O[C@@H]1[C@@H]2C[C@H]3[C@H]1N[C@@H]1C[C@@H]2[C@@H]3[C@H]1O,inactive
15,CNc1ccc(C(=O)C[C@@H](O)CC[C@@H](C)[C@H]2OC(=O)C[C@@H](O)CC(=O)C[C@@H](O)C[C@@H](O)C[C@@H](O)C[C@@H](O)C[C@@]3(O)C[C@@H](O)[C@H](C(=O)OC)[C@@H](C[C@@H](O[C@@H]4O[C@H](C)[C@@H](O)[C@H](N)[C@@H]4O)\C=C/C=C\C=C/C=C\C=C/C=C\C=C/[C@@H]2C)O3)cc1,inactive
16,N[C@H]1CCN(c2cccnc2)C1,inactive
17,C=CCOC(=O)[C@@H]1[C@@H](C(=O)OC)N(C)[C@@H](c2ccccc2)[C@]12C(=O)Nc1ccc(I)cc12,inactive
18,O=C(O)Cc1cnc[nH]1,inactive
19,O=C(c1ccco1)N1[C@@H]2CC[C@H]1CNC2,inactive
20,Cl.NCCc1cc(O)c(O)cc1O,inactive

row,Structure (SMILES),cytotoxicity call
1,O=C1CCO1,inactive
2,CC(C)C12CN3CCN(CC(C3)C1=O)C2,inactive
3,CN1CCN(c2ccccc2CN)CC1,inactive
4,CNC(=O)[C@H]1C[C@H]2CN(CC3CC3)C[C@H]1O2,inactive
5,OCC[N+]12CN3CN(CN(C3)C1)C2,inactive
6,c1cnc2[nH]cc(CN3CCNCC3)c2c1,inactive
7,Cc1csc(CCN)n1,inactive
8,COc1ccc(OC(=O)N(C)C[C@H]2OCc3ccccc3-c3c(n(C)c4ccccc34)C(=O)N([C@H](C)CO)C[C@H]2C)cc1,inactive
9,Cc1cc([N+](=O)[O-])cnc1N1CCNCC1,inactive
10,[N-]=[N+]=NCc1ccccc1C[C@@]1(C(=O)N2CCCCC2)N=C(c2ccc(OCCCO)cc2)O[C@@H]1c1ccccc1N=[N+]=[N-],inactive
11,O=C(O)CCl,inactive
12,COC(=O)[C@@]1(Cc2ccccc2CN=[N+]=[N-])N=C(c2ccc(OCCCO)cc2)O[C@H]1c1ccccc1CN=[N+]=[N-],inactive
13,CC(N)C(O)c1ccccc1.Cl (centres undefined),inactive
14,CN1CCN(c2nc(=O)c3c([nH]2)CCCC3)CC1,inactive
15,CC(=O)Nc1ccc(CCN)cc1,inactive
16,N[C@@]1(C(=O)O)CC[C@H](C(=O)O)C1,inactive
17,OCC(O)C1OC2OC(C(Cl)(Cl)Cl)OC2C1O (centres undefined),inactive
18,OCC(Br)(Br)Br,inactive
19,O=C(O)CF.[NaH],inactive
